# Results: PubChem BioAssay AID1347165 (National Center for Advancing Translational Sciences (NCATS), 2019)
# Hit rate of the full screen: of about 220,000 compounds, about 5,700 (2.6%) were called active. Inconclusive results, whose numbers are uncertain, are shown with a selection of clear calls. Calls come from the whole dose curve; as a rule, active = well fitted inhibition curve with a large enough effect; inconclusive = small, poorly fitted or top-dose-only effect; inactive = no such curve, though single readings can be large or run the other way. Where the call is inconclusive, the potency comes from a doubtful curve fit.
# Molecular target: Lysine-specific demethylase 5B (Homo sapiens) (UniProt Q9UGL1)
# Experiment: Primary screen for KDM5B Histone Demethylases FDH-coupled qHTS; note: nearly all actives have a fitted effect of over 70% in size; for activity change, negative = inhibition: 0% is about no effect
# Conditions: FDH-coupled NADH fluorescence (FDH is formaldehyde dehydrogenase); activity change, negative = inhibition: at 57.7 µM (top of the series) unless noted
# How it was run: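 Compound dilutions met 200 nM (final) KDM5BΔAP for 10 min at room temperature before substrate addition. The substrate mix held 12.5 µM H3K4me3 with cofactors 25 µM α-ketoglutarate and 50 µM Fe²⁺. NADH signal gain over 30 min defined activity.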
# Potency is the fitted concentration of half-maximal effect; tags give direction and shape of the fitted curve.
# Chain of UniProt Q9UGL1 (Q9UGL1 whole entry, looked up): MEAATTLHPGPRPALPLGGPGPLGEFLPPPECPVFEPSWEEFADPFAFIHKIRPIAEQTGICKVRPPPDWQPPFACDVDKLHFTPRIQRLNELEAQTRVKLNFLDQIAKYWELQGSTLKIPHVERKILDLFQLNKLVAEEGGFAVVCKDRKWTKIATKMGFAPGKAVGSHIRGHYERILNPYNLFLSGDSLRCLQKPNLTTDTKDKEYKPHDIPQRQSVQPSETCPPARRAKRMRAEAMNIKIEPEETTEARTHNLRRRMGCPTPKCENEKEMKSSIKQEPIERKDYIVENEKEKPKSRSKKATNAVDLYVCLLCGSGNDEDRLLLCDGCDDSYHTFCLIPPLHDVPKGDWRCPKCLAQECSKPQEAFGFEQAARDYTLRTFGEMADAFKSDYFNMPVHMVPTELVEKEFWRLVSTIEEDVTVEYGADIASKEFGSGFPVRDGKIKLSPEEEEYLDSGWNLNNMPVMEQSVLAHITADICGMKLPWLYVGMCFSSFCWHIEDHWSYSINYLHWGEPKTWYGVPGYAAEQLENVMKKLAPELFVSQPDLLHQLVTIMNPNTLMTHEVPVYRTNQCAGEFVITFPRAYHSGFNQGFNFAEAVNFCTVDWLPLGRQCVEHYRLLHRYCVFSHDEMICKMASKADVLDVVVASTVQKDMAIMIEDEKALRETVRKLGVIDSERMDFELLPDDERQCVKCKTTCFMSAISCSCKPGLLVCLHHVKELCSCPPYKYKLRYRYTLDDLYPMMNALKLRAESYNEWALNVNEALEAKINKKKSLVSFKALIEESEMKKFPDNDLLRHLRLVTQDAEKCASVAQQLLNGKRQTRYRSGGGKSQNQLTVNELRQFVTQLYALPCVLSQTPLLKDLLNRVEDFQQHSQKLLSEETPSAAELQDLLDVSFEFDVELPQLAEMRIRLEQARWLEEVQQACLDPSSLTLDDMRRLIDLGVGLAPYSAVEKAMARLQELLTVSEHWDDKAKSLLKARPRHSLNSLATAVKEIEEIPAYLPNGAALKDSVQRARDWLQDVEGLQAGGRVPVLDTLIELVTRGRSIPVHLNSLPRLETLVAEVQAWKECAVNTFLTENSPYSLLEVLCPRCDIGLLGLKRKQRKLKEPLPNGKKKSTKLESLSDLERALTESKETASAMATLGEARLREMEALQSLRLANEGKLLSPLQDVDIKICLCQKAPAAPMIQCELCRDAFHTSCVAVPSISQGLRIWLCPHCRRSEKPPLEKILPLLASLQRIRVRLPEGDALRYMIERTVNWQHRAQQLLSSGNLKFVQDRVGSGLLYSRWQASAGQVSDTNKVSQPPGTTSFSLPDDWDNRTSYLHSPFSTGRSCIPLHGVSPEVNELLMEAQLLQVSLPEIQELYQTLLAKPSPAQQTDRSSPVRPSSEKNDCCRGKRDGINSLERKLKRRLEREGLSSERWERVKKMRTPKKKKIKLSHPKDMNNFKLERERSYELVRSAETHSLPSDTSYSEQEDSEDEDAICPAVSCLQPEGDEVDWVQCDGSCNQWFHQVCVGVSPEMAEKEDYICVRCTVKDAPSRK
Structure (SMILES),Potency,"activity change, negative = inhibition"
C=CCOC(=O)/C=C/C(=O)NC(N)=O,"inconclusive: 31.6 µM [inhibitor, single point]",
Clc1ccc2c(NN=C3CCCC3)ccnc2c1,"inconclusive: 35.5 µM [inhibitor, single point]",
CCOC(=O)c1cccc(NC(=O)CCc2c(C)nc3c4cccnc4nn3c2C)c1,"inconclusive: 25.1 µM [inhibitor, partial curve, poor fit]",
Cc1ccccc1CC(=O)N1CCCN(c2cc(-c3ccc(Cl)cc3)[nH]n2)CC1,"inconclusive: 15.8 µM [inhibitor, partial curve, poor fit]",
O=C(CCc1c[nH]c2ccccc12)NCc1ccc(Cl)cc1Cl,,inactive: 0.63%
Cc1ccc(/C=C(/C#N)S(C)(=O)=O)c(C)c1,,inactive: 4.5%
CCOc1ccc(-c2nc3cc(NC(=O)c4cccc(C)c4)ccc3o2)cc1,"inconclusive: 39.8 µM [inhibitor, single point]",
CC1=NN(C(=O)c2ccccc2)C(O)(c2ccc(Br)cc2)C1 (configuration not stated),"inconclusive: 35.5 µM [inhibitor, partial curve, poor fit]",
COc1ccc2c(c1)CCN=C2C[C@H]1CN(C(=O)c2ccc(F)cc2)CC[C@H]1CC(=O)O,"inconclusive: 31.6 µM [inhibitor, partial curve, poor fit]",
COc1ccc(C(=O)N2CCC(N3CC4CC(C3)[C@H]3CCCC(=O)N3C4)CC2)c(OC)c1 (some centres not stated),"inconclusive: 15.8 µM [inhibitor, partial curve]",
CC(C)CCNC(=O)c1ccc2c(Cl)c3c(nc2c1)CCCC3,,inactive: 4.04%
COc1ncc(-c2cc(C(=O)NCc3c(C)cc(C)[nH]c3=O)c3c(c2)N(C(C)C)CCO3)cn1,,inactive: 0.0728%
O=C(NC1CCCCC1)c1ccc(NC(=O)C2CC2)cc1,,inactive: 33.8%
CN(C)[S+](=O)([O-])c1ccc2c(c1)OCCN(Cc1ccc(C(F)(F)F)cc1)C2,"inconclusive: 31.6 µM [inhibitor, single point]",
CCCn1c(C)cc(C(=O)CSc2nnc(-c3ccncc3)n2-c2ccccc2)c1C,,inactive: -4.78%
CN(C(=O)CSc1nc2ccc(NC(=O)c3ccc(F)cc3)cc2s1)c1ccccc1,"inconclusive: 35.5 µM [inhibitor, partial curve, poor fit]",
CCOc1ccc(N(C(=O)c2snc(C(N)=O)c2N)C(C(=O)NCC2CCCO2)c2c[nH]c3ccccc23)cc1 (configuration not stated),"inconclusive: 31.6 µM [inhibitor, partial curve, poor fit]",
N#CC1=C(N)OC2=C(C(=O)CC(c3ccccc3)C2)C1c1ccccc1Br (configuration not stated),"inconclusive: 14.1 µM [inhibitor, partial curve, poor fit]",
Cc1[nH]nc2c1C(c1cccc(Cl)c1)C(C#N)=C(N)O2 (configuration not stated),"inconclusive: 15.8 µM [inhibitor, partial curve]",
COc1ccccc1C1C(C(N)=O)=C(C)Nc2nc(SCc3ccccc3F)nn21 (configuration not stated),"inconclusive: 15.8 µM [inhibitor, partial curve, poor fit]",
COC(=O)c1cccc2nc([C@H]3CCN(Cc4ccccc4)C3)oc12,"inconclusive: 39.8 µM [inhibitor, partial curve, poor fit]",
COc1cc(C#N)ccc1OC(=O)c1oc2ccccc2c1C,,inactive: -1.48%
O=C1Nc2ccccc2/C1=C/c1csc(-c2ccccc2)n1,,inactive: 13.1%

Structure (SMILES),Potency,"activity change, negative = inhibition"
O=C(NCCc1ccccc1)C1Cn2cccc2C(=O)N1Cc1cccnc1 (configuration not stated),,inactive: -18.7%
O=C(Nc1cccc(Cl)c1)N1Cc2ccccc2Oc2ncccc21,"inconclusive: 11.2 µM [inhibitor, partial curve, poor fit]",
Oc1c(Cl)cc(Cl)c(Cl)c1Sc1c(O)c(Cl)cc(Cl)c1Cl,"inconclusive: 39.8 µM [inhibitor, single point]",
Cc1c(CNC(=O)c2ccc3c(c2)[nH]c(=O)n3C2CCC(O)CC2)cnn1C (configuration not stated),"inconclusive: 12.6 µM [inhibitor, partial curve]",
CCC(C)NC(=O)CC1Sc2ncccc2N(CC(C)C)C1=O (configuration not stated),"inconclusive: 39.8 µM [inhibitor, single point]",
Cn1ccnc1-c1ccc(N2CCCC(CO)(Cc3cccc(Cl)c3)C2)nn1 (configuration not stated),"inconclusive: 28.2 µM [inhibitor, partial curve, poor fit]",
COc1ccccc1-c1cn2c(n1)CO[C@@H](CNC(=O)NCc1ccccc1)C2,,inactive: -23.4% [at 86.2 µM]
CCn1nccc1C(=O)N1CCC(O)(c2ccccc2)[C@H](N(C)C)C1 (some centres not stated),"inconclusive: 0.708 µM [inhibitor, full curve, poor fit]",
COc1cc(F)ccc1-c1ccc(=O)n(CC(=O)N2CCC(Cc3ccccc3)CC2)n1,,inactive: 20.5%
COc1ccc(NC(=O)N2CC[C@@H](CC(=O)O)[C@@H](CC3=NCCc4cc(OC)c(OC)cc43)C2)cc1,active: 35.5 µM,
CN(C)c1cc(-c2ccc(Br)cc2)oc(=O)c1Cl,"inconclusive: 39.8 µM [inhibitor, single point]",
COc1nc(N)c(C#N)c(-c2ccc(N(C)CCC#N)cc2)c1C#N,"inconclusive: 35.5 µM [inhibitor, partial curve, poor fit]",
CC1CC(O)C(C)(C)N(C)C1 (configuration not stated),,inactive: 18.9%
Cc1ccc2c(Sc3ccc(Cl)cc3)c(C(=O)N3CCCCC3)[nH]c2c1,"inconclusive: 25.1 µM [inhibitor, single point]",
COCCn1cnc2c1c(=O)n(CC(=O)Nc1ccccc1F)c(=O)n2Cc1ccccc1,,inactive: 10.1%
COc1ccccc1-c1nc(CNC(=O)NC2CCCCC2)c(C)o1,"inconclusive: 25.1 µM [inhibitor, single point]",
COc1ccccc1C(=O)Nc1ccc2oc(-c3ccccc3C)cc(=O)c2c1,"inconclusive: 2 µM [inhibitor, full curve, poor fit]",
O=C(c1n[nH]c2c1CCCCCC2)N1CCc2c(nc3cc(-c4ccccc4)[nH]n3c2=O)C1,"inconclusive: 25.1 µM [inhibitor, single point]",
CC(C)CNC(=O)C1(CCO)CCN(c2ncccn2)C1 (configuration not stated),active: 25.1 µM,
CN(C)c1cccc(C(=O)OCc2ccc(C#N)cc2)c1,"inconclusive: 39.8 µM [inhibitor, single point]",
CC(=O)N1CCCC(c2[nH]ccc2C(=O)N2CCc3ccccc32)C1 (configuration not stated),,inactive: -32.7%
Nc1ccc(-c2cccc(CN3CCCC3)c2)cc1,"inconclusive: 10 µM [inhibitor, partial curve, poor fit]",
COc1ccc(-c2cc3ccc(OCC(=O)OC(C)C)cc3oc2=O)cc1,"inconclusive: 39.8 µM [inhibitor, single point]",

Structure (SMILES),Potency,"activity change, negative = inhibition"
O=c1c2nc(OCc3ccc(-n4cccn4)cc3)ccc2ncn1Cc1ccccc1,"inconclusive: 56.2 µM [inhibitor, single point]",
CNC(=O)Nc1ccc(C)n(CC(=O)N2CCN(c3ccccc3F)CC2)c1=O,"inconclusive: 20 µM [inhibitor, single point]",
O=C(Nc1cccc2ccccc12)O[C@@H]1CO[C@H]2[C@@H]1OC[C@@H]2NC(=S)Nc1ccc(Cl)cc1,,inactive: -16.2%
Cc1ccccc1-c1nc(C#N)c(NCC2CCCO2)o1 (configuration not stated),"inconclusive: 22.4 µM [inhibitor, partial curve, poor fit]",
CCCC1CN(C(=O)OC(C)(C)C)C(C)CN1 (configuration not stated),,inactive: 20.5% [at 230 µM]
O=C1NCc2ccccc2CC12CCN(Cc1cc(F)ccc1O)CC2,,inactive: 12.2% [at 149 µM]
O=C(Cc1cccc(F)c1)NCc1nnc2c(-c3nc(C4CC4)no3)cccn12,active: 31.6 µM,
CN1CCCCCC(O)c2cc(C(=O)Nc3cccc(OC(F)(F)F)c3)ccc21 (configuration not stated),"inconclusive: 25.1 µM [inhibitor, partial curve, poor fit]",
COCCCNc1nc(-c2c(C)noc2C)cc2cc(C(C)C)oc12,"inconclusive: 31.6 µM [inhibitor, partial curve, poor fit]",
CCN1CCc2[nH]cnc2C12CCN(C(=O)Cc1c[nH]c(=O)[nH]c1=O)CC2,"inconclusive: 20 µM [inhibitor, partial curve]",
O=C(Nc1ccccc1)c1nc2c(o1)CCN(Cc1ccccn1)CC2,"inconclusive: 39.8 µM [inhibitor, single point]",
O=C(CSc1nc2c([nH]c3ccccc32)c(=O)n1-c1ccccc1)Nc1cccc(C(F)(F)F)c1,"inconclusive: 31.6 µM [inhibitor, single point]",
Cc1ccc(N(C)C(=O)Cn2ncc3c([nH]c4ccccc43)c2=O)cc1C,"inconclusive: 12.6 µM [inhibitor, partial curve, poor fit]",
Cc1cccc(CSCC(=O)N(C)C)c1,,inactive: 18.8%
OC(Cc1ccccc1)c1ccc2c(c1)CN(Cc1ccc(OC(F)F)cc1)CCO2 (configuration not stated),,inactive: 12.3%
CCc1ccc(CNC(=O)c2ccc3c(c2)c(C)c(C)n3Cc2ccccc2)cc1,"inconclusive: 28.2 µM [inhibitor, partial curve, poor fit]",
COc1ccc(OC)c(C2c3[nH]c4ccccc4c3C[C@H]3C(=O)N(CCCOC(C)C)CC(=O)N23)c1 (some centres not stated),"inconclusive: 8.91 µM [inhibitor, full curve, poor fit]",
CC(C)(C)c1ccc(-c2nc(C#N)c(NCc3ccco3)o2)cc1,"inconclusive: 14.1 µM [inhibitor, partial curve, poor fit]",
COc1ccc(S(=O)(=O)N2CCN(c3cc(N4CCOCC4)nc(C)n3)CC2)c(C)c1C,,inactive: -6.82%
Cc1ccc(C(=O)NC2CCN(c3ccc(=O)n(C)n3)CC2)cn1,"inconclusive: 20 µM [inhibitor, single point]",
COc1ccc(CN(C(=O)c2ccco2)c2ccc(CC(=O)NC(C)C)cc2)cc1,,inactive: -6.02%
